Measurements from the supplement of paper PMC3334620.
Over roughly 33,000 sequences, “E-score (-0.5 to 0.5)” has its median near -0.016; the highest 2% begin near 0.32. The list shows a part of the results.

The sequences below were run against T1, Stp1 (UniProt B3LFK1) (assay: PBM E-score (8-mer binding enrichment) (E-score (-0.5 to 0.5)); higher = stronger / more preferred TF binding; most listed sequences are background and not binding sites). Conditions: protein concentration: 200 nM; construct: GST-full length.
T1 sequence: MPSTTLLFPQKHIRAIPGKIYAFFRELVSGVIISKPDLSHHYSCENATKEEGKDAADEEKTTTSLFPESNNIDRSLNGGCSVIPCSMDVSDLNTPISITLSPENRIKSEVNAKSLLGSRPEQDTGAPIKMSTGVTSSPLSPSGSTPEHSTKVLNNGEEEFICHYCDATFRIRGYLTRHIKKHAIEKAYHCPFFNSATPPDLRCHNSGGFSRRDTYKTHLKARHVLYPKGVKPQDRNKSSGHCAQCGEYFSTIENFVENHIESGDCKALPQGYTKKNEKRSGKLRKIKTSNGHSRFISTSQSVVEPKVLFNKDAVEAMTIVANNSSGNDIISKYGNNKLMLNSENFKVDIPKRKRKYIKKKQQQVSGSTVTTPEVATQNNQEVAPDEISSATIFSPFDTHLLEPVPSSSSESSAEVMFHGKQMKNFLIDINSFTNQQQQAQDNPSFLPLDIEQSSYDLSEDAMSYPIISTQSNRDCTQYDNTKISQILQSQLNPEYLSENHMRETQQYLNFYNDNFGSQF
Procedure, shortened: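 Yeast transcription factors carrying a GST tag, as full-length proteins or DNA-binding domains, were produced by PURExpress in vitro transcription/translation. About 100-200 nM protein was applied to universal all-10-mer Agilent arrays, double-stranded by primer extension on fresh or once-stripped slides. Bound protein was detected with fluorescent anti-GST, and scans were normalised with masliner. The Universal PBM Analysis Suite gave each ungapped eight-base word, pooled with its reverse complement, an E-score, a modified Wilcoxon-Mann-Whitney statistic.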

Sequence	PBM E-score
AAATACGG	0.207
GATTAGCC	0.138
CAATGCCG	0.374
ATACCAAT	-0.0455
CTTCGACC	-0.0395
AATTTGCC	0.157
AATTTACT	0.214
ACATCGAC	-0.0237
TAGGGTCA	-0.132
TTGCGCAA	0.0333
TAGGCGGA	-0.096
AGCAGTGC	-0.0948
CGGTGGGC	0.0372
CAACCTTG	0.0792
AGAACGTG	0.0266
AATAACAT	0.194
CAGGCGCA	-0.031
CTTATTGC	0.0179
AAGTATGT	-0.0157
AACTTCGA	0.186
CTCAGATA	0.0224
ATATCCCG	0.077
TTCCGCAA	-0.0685
AGGCGCAA	0.279
ATCCGAAG	-0.142

Sequence	PBM E-score
CCCAGAGG	-0.293
CGCATTTA	0.119
ATCCCACC	-0.117
CCCGGACG	-0.286
ATCACCAA	0.00107
AGACCGCC	-0.0258
GTACCCAC	-0.094
CTTGTAGA	-0.211
CAGTTTCA	-0.0566
CGTCTATC	-0.0585
CGAACTAG	0.0201
GAACCCTC	-0.36
GGTTCCGA	-0.12
CATAGTAC	-0.103
GTATGACA	0.0959
ATGAGAGC	-0.0075
CTTCCGCC	0.0555
ATCATTGA	0.148
GAACTTAA	0.0354
TTAACGAA	0.194
AGGCACGC	0.209
GTTTGCTA	-0.0175
CCACTATC	-0.0893
GTAACATA	0.0675
CGCCTACC	0.0802

Sequence	PBM E-score
AACTCTGT	-0.12
AAAATCCA	0.0868
AATAGGCG	0.211
GACTACCC	-0.361
AACGGAGG	-0.055
AGCCTGTA	-0.108
GCGTAAGA	0.0658
AGACGTGC	0.172
ACGTTTCA	0.0635
GGGTACAA	-0.0604
CGGCAAAG	0.264
CGACCGGC	0.157
AGCATTGC	-0.00935
GCGAACTA	0.0405
ACCATCAC	-0.02
GCGTTCCC	-0.141
AGACTGCT	-0.305
AGATCTGC	0.0544
ACATCCTG	0.0246
AACTAGCA	-0.153
GTTGGTCA	0.0819
AGTAATCG	0.0689
GGTATCCA	0.0649
AAACATCT	-0.0306
ATCACATC	-0.101

Sequence	PBM E-score
AATCTGTA	-0.0269
GGACGTTA	-0.0507
ACTTGATC	-0.113
AGCATAAG	-0.029
GTCCTACA	0.0933
GTATCGAC	0.0676
ATTCACCG	0.0944
CCCAAGGA	-0.137
CTCGCCAC	-0.0166
CATTTAAC	0.121
AACAATAA	0.124
ATCACCAT	0.108
CAACGGGG	-0.104
CCGTCAAG	-0.0143
ACCTCTGA	-0.0406
GAGAGGGC	-0.0876
AAACGCCG	0.428
AGTCTAAC	-0.0391
ACCGAATG	0.0815
GCAACACA	0.128
AACCATGT	0.0492
CAAGGTGC	0.117
ACTAATTC	0.085
GGTCACAA	-0.0312
GTAGAGTA	0.0935

Sequence	PBM E-score
GTCCCAAC	-0.0557
GACTAATC	0.139
ATCTTGGG	-0.0872
AACCTGGC	-0.0591
CAGTGAAG	-0.101
CGAGATGA	0.0383
CCCCTGGC	-0.238
ACATCAGA	0.0147
ACGGTAAT	0.029
AGTGATTC	0.116
ATCCATAA	0.242
AAAGGCCC	0.0271
AGCATTCA	-0.041
GATGCATC	0.0692
AGTTGTCG	-0.00677
ACTATGCT	0.143
GAAATGGA	-0.11
CAACACTA	0.0348
AACACATT	0.123
CATGGTCG	-0.0379
GGCAACCC	-0.0607
CCTAAGAC	-0.249
AGGCGGCA	0.369
AACTCGGG	-0.155
ACCCGCGA	0.106

Sequence	PBM E-score
AGATGTCG	-0.12
ACTTGGAT	-0.0149
GGATAGGA	-0.202
TGAGTAAA	-0.0202
GAGCAGAA	-0.0386
CGCGCCTA	0.313
CGTGGAGC	-0.0597
CAGGAATG	-0.0261
ATCCGTAA	-0.09
ACAAGGCG	0.38
TCGCGCAA	0.14
TTAAATAA	0.114
GAGAAAAC	0.0641
AGAGTAGC	-0.197
AAATTACC	-0.0227
TGGTAACA	0.0718
GAAAACGA	0.0433
CTCAGAGC	-0.211
AAAAAAAT	0.0656
GTATTATA	0.309
AGACTATG	-0.109
ATAACCGG	-0.144
ATGAGTTC	-0.148
TATCAGAA	0.22
CTGCAGTC	-0.173

Sequence	PBM E-score
TCCGACCA	-0.164
AATATAGT	0.0424
ATATGAAA	0.17
ATAATTGG	-0.0243
CATTAATG	-0.00015
AGAGGCTC	0.0034
ATTTGTTA	0.159
GAGATTAA	0.0466
CCACAGTA	0.144
ACGGGCAG	0.0634
CAATGCAC	-0.00094
CGAGCGGA	0.114
CAGTAATA	0.186
CTTTTCAC	0.0444
CTGATTAA	0.0766
CTTGGTAC	0.0413
AATATGCC	0.133
GGGACTAC	-0.275
GAGTTAAA	0.115
GGAAGGAC	-0.263
GACGCAGA	0.0186
CATAGATG	-0.0954
GGAGAGCA	-0.263
GAGGGCGC	0.189
ATCTTATC	0.0792

Sequence	PBM E-score
CGTCCAAG	0.0854
TGTCTAAA	0.217
ACCCACAC	0.0842
ATCCCAAG	-0.00544
GGGCGCTA	0.0956
AAATTGCT	-0.00925
CGCAGCAA	-0.0814
AAGTACAG	-0.119
CCTGGGTC	-0.258
AGTTGATG	-0.0271
ATCTGAAG	-0.04
AATCGTTC	0.0914
GCTATCGA	0.0387
AGGGCACG	0.302
AAAGGGTC	-0.0953
TACCGTAA	0.0576
GCGCGGCA	0.483
GTAGTCCA	-0.156
CTCCTCAC	-0.154
CTCAATAA	0.0621
AGTCCAAT	-0.0818
TCAACACA	0.15
CTAGCCCC	-0.27
ATCAGAGC	0.0942
ATACGTTA	0.0463

Sequence	PBM E-score
AACGATAG	-0.00989
GCACTAGA	-0.056
CCTCGGAA	-0.0641
GCTTAGCA	-0.0219
ACTCATAG	-0.0564
CAAGCGAC	-0.128
CCTCGTGC	0.131
GATGAACA	-0.00822
CTTGTTTC	0.0834
ATCTTCAT	-0.0473
CATCTTTA	0.223
AAAATTAT	0.208
ACATGGAT	-0.0555
AACTGCGT	0.00114
ATAGTCCC	-0.271
AACGACAC	-0.0363
ATCCGGAA	-0.0288
ACCCTCTA	-0.261
CGTTGTGA	0.173
